Laboratory results reported in article PMC10746786 (2023).

B1: FLAG-tagged EIF4G2 WT [human] / EIF2S2 [human (endogenous in HEK293T)] (parent complex)
chain 1: MESAIAEGGASRFSASSGGGGSRGAPQHYPKTAGNSEFLGKTPGQNAQKWIPARSTRRDDNSAANNSANEKERHDAIFRKVRGILNKLTPEKFDKLCLELLNVGVESKLILKGVILLIVDKALEEPKYSSLYAQLCLRLAEDAPNFDGPAAEGQPGQKQSTTFRRLLISKLQDEFENRTRNVDVYDKRENPLLPEEEEQRAIAKIKMLGNIKFIGELGKLDLIHESILHKCIKTLLEKKKRVQLKDMGEDLECLCQIMRTVGPRLDHERAKSLMDQYFARMCSLMLSKELPARIRFLLQDTVELREHHWVPRKAFLDNGPKTINQIRQDAVKDLGVFIPAPMAQGMRSDFFLEGPFMPPRMKMDRDPLGGLADMFGQMPGSGIGTGPGVIQDRFSPTMGRHRSNQLFNGHGGHIMPPTQSQFGEMGGKFMKSQGLSQLYHNQSQGLLSQLQGQSKDMPPRFSKKGQLNADEISLRPAQSFLMNKNQVPKLQPQITMIPPSAQPPRTQTPPLGQTPQLGLKTNPPLIQEKPAKTSKKPPPSKEELLKLTETVVTEYLNSGNANEAVNGVREMRAPKHFLPEMLSKVIILSLDRSDEDKEKASSLISLLKQEGIATSDNFMQAFLNVLDQCPKLEVDIPLVKSYLAQFAARAIISELVSISELAQPLESGTHFPLFLLCLQQLAKLQDREWLTELFQQSKVNMQKMLPEIDQNKDRMLEILEGKGLSFLFPLLKLEKELLKQIKLDPSPQTIYKWIKDNISPKLHVDKGFVNILMTSFLQYISSEVNPPSDETDSSSAPSKEQLEQEKQLLLSFKPVMQKFLHDHVDLQVSALYALQVHCYNSNFPKGMLLRFFVHFYDMEIIEEEAFLAWKEDITQEFPGKGKALFQVNQWLTWLETAEEEESEEEAD
chain 2: not shown

Variants of: B1
Assay: co-immunoprecipitation followed by mass spectrometry; FLAG-tagged EIF4G2 transfected into HEK293T cells; corrected for EIF4G2 levels in IP; read off a plot
Variant chain 1 R178Q has a ratio to parent of ~1.5.
